Experimental data published in the supplement of paper PMC11417369.
The list shows a part of the results.

What follows are sequences tested on PfHDP1 homeodomain (GST-tagged) (assay: gcPBM binding intensity (ln(normalized median fluorescence intensity)); higher = stronger DNA binding).
Method in brief: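 After 1 h on an Agilent 4 × 180k array of primer-extended double-stranded 36-bp intergenic genomic probes and negative controls, bound GST-tagged P. falciparum DNA-binding domains were detected with Alexa488 anti-GST antibody and scanned at 488 nm. The domains had been expressed in E. coli, and binding took place in 1× PBS with 1% milk, 0.2 mg/ml BSA, 0.5% salmon testes DNA and 0.03% Triton X-100. Binding intensity is the highest Masliner-normalised natural-log median intensity across replicate spots of either probe orientation.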

Sequence	gcPBM binding intensity (ln)
TAAATCAAAATAATTTAACACACAATTTTAATACTG [CACACA_site8744]	6.1
TTTTCCAATTTAAAAGCATGCATCTGTTTTTTTTTT [TGCATGCA_site482]	6.2
AGAGGTAGAGAGAAAACATGCATAATGATTTTCATA [TGCATGCA_site958]	6.1
TAGAGGTATAAAATATGTACTTATAAAAACATGAAT [XGTACX_site8916]	6.71
TATATGATATAATATACACACATACAGATATATATA [CACACA_site4440]	6.59
AAATTATTAAGTGATATAATATTCTATAGATGGGGA [CACACA_negctrl_site168]	6.76
AAAAAAAGTAAATGTTGTACTATAATATGTAATATA [XGTACX_site7966]	6.37
AAATAACACTAATGATGTACTCAACTATTTATAATT [XGTACX_site8183]	6.37
ATATACATATCCATATTTATATCTATATTTAAAACA [CACACA_negctrl_site747]	5.96
TACATATATATTATATGTACTTATATTTTTATAATA [XGTACX_site3452]	6.09
AACCACATACATATAACACACATATACAATCTATAT [CACACA_site1987]	6.84
TAAAAAAAATATTTTTGTACGAATTAAATTTTTTTT [XGTACX_site4838]	5.98
TATGAAATTTTAATTACACACAGGAAAATAAAATGG [CACACA_site4935]	6.45
ACATATTTTTAATACACACTCAAAAAAGTACTTAAC [CACACA_site3014]	6.7
TTCTTAAAAGGAAAGGTGCAACTTTATCATTTTCTT	10.2
TAAATACATAAATACACACACATATATTATATATAT [CACACA_site4310]	7.09
ATATTAACTATCATAACACACACAGTAGACATATTT [CACACA_site6941]	6.75
TATCATATATAAAGAGGTACGTAAGAATAGAAAATT [XGTACX_site798]	7.27
ATATATATTATATAAGTGCATAATATTCTTTCTTTT	8.58

Sequence	gcPBM binding intensity (ln)
TTTTTCATTTCTGCATTTATTTATAAATAAATATTT [CACACA_negctrl_site368]	7.21
TTCAAATATAAATACACACACATAGCTACAAAATAA [CACACA_site4172]	7.14
TACACGCATGGACACACACACACACCCATATATATA [CACACA_site4522]	7.11
TATAAGAGAATATATACACACAAAAATATATACAGT [CACACA_site1668]	6.97
TATATATTTTGTGTCTGTACACATATTATTAATTCC [XGTACX_site7507]	6.25
TTTTTTTATCAATGTTGTACTTTTTTTTTTTTCCAT [XGTACX_site8864]	6.18
TACAATAAGGATAAGTGTACATATGTGCATACATAT [XGTACX_site7188]	10.6
AAAAATTATAGAAAAGTGCAATACATGTTACACCAT	8.42
CATATAGCATAATCATGTACACATACAACAAATAGG [XGTACX_site1589]	6.86
AATATATTTTTTGGTTGTACAGAGATCTTTGTAGAA [XGTACX_site1707]	6.39
ATTCTCCAAGTTTGATGTACACATATGACGACGGCG [XGTACX_site4912]	6.36
TATAATAATTATACATGTACACATTATTTGGATAAA [XGTACX_site5552]	6.4
TTTTTATATTTAATGTGTCCTCACTTAAAAGGATGA [XGTACX_site2744]	6.13
TATAATCAATATGTAACACACAAAAGTTATATACTT [CACACA_site7368]	6.24
CTTTTTTGTTAAAGTGTGCGCAATAGTTATAGACTT [GTGCAC_site9670]	7.62
AAAATAAAATAAAAGTGTACGTTTTAAGAACATTGA [XGTACX_site2382]	6.27
GTAAAAATAAAAACTGGTACACAAGTTGTTATAAAA [XGTACX_site502]	6.22
AACATGCTCAACTTTTTTTTTTTTTTTTTTTTTTTT [CACACA_negctrl_site1617]	9.03
AATCTTAAAAATATATGTACTAAAAAAAAAAAAAAT [XGTACX_site6195]	6.55

Sequence	gcPBM binding intensity (ln)
ATATTTATTTATTTATGTACGCACACAGTTGATATT [XGTACX_site5808]	7.04
CACTATATAAGAACCTGTACTCAATTTTGCAATATA [XGTACX_site7238]	8.53
AAATTATATTCAAGTGCATGTAACTTATTATTATAT [TGCATGCA_site526]	7.16
TAATAATAAAAATAAACACACATATATATGTATATA [CACACA_site2853]	6.4
TATATTTTCCTGCAAACACACATATAAATGTGTAGA [CACACA_site533]	6.77
TTACGATTATACAAAAGTACATGTATTACACAATAT [XGTACX_site5138]	6.63
TATACCAGTTTTAAAAGTACTTGTGCATAAAAAATA [XGTACX_site4794]	11
AAACTTGTAAGAAACACACACACACCCATATATATA [CACACA_site797]	7.18
AAATTGGGGCTTGTTACACACTTAGTGGGAGTTCTA [CACACA_site4485]	6.78
ATGAATAAATTAAAAATGCACACTTTGATGGGTACA [CACACA_site2157]	8.98
TATATATATATATATACACACTATATAATTCAAACA [CACACA_site4712]	9.38
AAGTTACAAAATCAAAAGGAAAAAATATAAAATAAT [CACACA_negctrl_site561]	6.29
CAAGAAAATTGACACACACACATATTTATATTTATA [CACACA_site7766]	6.59
AACATATATATATATACATGCATATGAACAACGAAT [TGCATGCA_site93]	7.2
TGTATAAATATAATCACACATATATATATATATATA [CACACA_site4365]	9.42
TATAAAAATGTTTACACACACACATAAATATATTTT [CACACA_site2512]	6.69
TTTTTTTTTTTTCTGAGTACGAAAAATAGAGATAGA [XGTACX_site3825]	6.45
TATATTAAACCATGTAGTACCTTGAATAAATATTAT [XGTACX_site8254]	6.41
ATAAAAAGGAGACACACACACACACGCATATTTATA [CACACA_site6551]	6.85
